Laboratory results from PMC4336329 (PLoS ONE, 2015).
About 14,000 (4.5%) of roughly 310,000 compounds showed an effect of 50% or more. Effects have a minus sign here. The list shows a part of the results.

Target: human ether-à-go-go-related gene (hERG) potassium channel (human, UniProt Q12809)
Assay: primary screen, population patch clamp on CHO cells stably expressing hERG
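Also: peak tail current of the secondary pulse compared with the same well before compound.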

Sequence of human ether-à-go-go-related gene (hERG) potassium channel (Q12809 whole entry, looked up): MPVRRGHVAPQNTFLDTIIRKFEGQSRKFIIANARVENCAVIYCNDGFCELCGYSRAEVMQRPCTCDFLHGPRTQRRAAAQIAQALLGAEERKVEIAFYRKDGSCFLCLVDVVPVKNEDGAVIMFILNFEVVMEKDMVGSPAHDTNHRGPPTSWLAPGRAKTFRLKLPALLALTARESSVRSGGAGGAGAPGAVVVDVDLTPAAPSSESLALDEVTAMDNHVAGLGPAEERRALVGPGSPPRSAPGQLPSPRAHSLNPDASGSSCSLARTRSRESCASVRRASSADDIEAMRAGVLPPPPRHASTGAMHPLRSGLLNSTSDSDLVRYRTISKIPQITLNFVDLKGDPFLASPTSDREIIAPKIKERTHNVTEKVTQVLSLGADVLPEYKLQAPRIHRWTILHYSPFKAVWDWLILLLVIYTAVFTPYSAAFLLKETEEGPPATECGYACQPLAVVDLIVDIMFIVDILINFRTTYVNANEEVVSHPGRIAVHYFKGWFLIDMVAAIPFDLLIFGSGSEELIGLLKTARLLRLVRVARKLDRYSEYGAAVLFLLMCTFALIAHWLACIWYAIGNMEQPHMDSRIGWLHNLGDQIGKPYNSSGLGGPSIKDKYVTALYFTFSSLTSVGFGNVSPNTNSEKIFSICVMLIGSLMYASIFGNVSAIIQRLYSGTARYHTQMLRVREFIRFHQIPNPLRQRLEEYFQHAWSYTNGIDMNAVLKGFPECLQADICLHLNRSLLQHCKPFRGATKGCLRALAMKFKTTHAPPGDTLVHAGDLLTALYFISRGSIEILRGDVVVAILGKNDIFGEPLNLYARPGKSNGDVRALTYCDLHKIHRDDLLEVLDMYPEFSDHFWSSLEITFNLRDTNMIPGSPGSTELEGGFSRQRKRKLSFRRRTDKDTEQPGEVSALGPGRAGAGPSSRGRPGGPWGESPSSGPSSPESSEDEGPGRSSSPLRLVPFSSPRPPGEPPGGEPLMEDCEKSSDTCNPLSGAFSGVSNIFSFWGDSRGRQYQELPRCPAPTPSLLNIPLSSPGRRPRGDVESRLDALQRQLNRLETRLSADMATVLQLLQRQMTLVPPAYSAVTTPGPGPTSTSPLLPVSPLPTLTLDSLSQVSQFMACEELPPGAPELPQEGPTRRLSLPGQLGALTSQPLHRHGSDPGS

SMILES	hERG current change (%, negative = inhibition) at 10uM [%]
O=C(Nc1cc(-c2nc3ncccc3o2)ccc1Cl)c1cccs1	-45.9
CC(=O)N1CCc2cc(S(=O)(=O)CCC(=O)N(C)c3cc(C)ccc3C)ccc21	1.49
Cc1nn(Cc2ccccc2)c(Cl)c1/C=C/C(=O)OC(C(=O)NC(N)=O)C(C)C (stereo not drawn)	16
Cn1nnc(NC(=O)c2ccc(Br)o2)n1	20.4
CCOc1cc(/C=N/NC(=O)CCn2nc(C)cc2C)ccc1O	24.4
CN1Cc2cc(C(=O)c3ccccc3O)cnc2NC1=O	-3.74
CCCC1=Nc2cc(C(=O)N3CCN(c4ccccn4)CC3)ccc2Sc2ccc(C)cc21	13
O=C(N[C@@H]1CCC(=O)N(CC[C@H](Sc2ccccc2)c2ccccc2)CC1)OCc1ccccc1	-24
C/C=C(\C)c1nnc(NC(=O)OCC)s1	8.46
O=C(NCc1ccccn1)c1ccc(OC2CCN(Cc3ccc(F)cc3F)CC2)cc1	-25.9
CCOP(=O)(OCC)/C(=N/OC(=O)c1cccc([N+](=O)[O-])c1)C(N)=O	12.9
COc1ccccc1CC(=O)Nc1c[nH]c(=O)[nH]c1=O	38.8
N/C(=N\OC(=O)C(c1ccccc1)c1ccccc1)c1ccccn1	8.35
COc1ccc(N2C(=O)[C@@H]3Cc4ccccc4CN3C2=O)cc1	-4.81
COCCNC(=O)c1c(N)n(CCC(C)C)c2nc3ccccc3nc12	-15.1
CCOc1ccc(-n2nnc3c(=O)n(CC(=O)N4CCCc5ccccc54)cnc32)cc1	-4.52
CCCCCCn1c(COc2ccccc2F)nnc1SCC(=O)c1c(N)n(C)c(=O)n(C)c1=O	9.75
Cc1ccc(NS(=O)(=O)c2ccc(-n3cccn3)cc2)cc1F	15.6
Cn1c(-c2ccncc2)nc2ccccc21	3.78
O=C(Nc1ccccc1N1CCN(C(=O)c2ccc(Cl)cc2)CC1)c1cccc([N+](=O)[O-])c1	-75
O=C(CCN1C(=O)/C(=C/c2ccccc2Cl)SC1=S)NNC(=O)c1cccnc1	18.4
O=C1NC(=O)C(=Cc2csc3ccccc23)C(=O)N1	7.68

SMILES	hERG current change (%, negative = inhibition) at 10uM [%]
CCOC(=O)C1(Cc2cccc(OC)c2)CCN(C(C)CC(C)(C)O)CC1 (stereo not drawn)	-28.5
Cc1ccc(F)cc1CNC(=O)C1CCC(=O)N(C2CC2)C1 (stereo not drawn)	2.81
O=C(O)C1C2C=CC(O2)C1C(=O)NCc1ccc(Cl)cc1 (stereo not drawn)	8.85
CCCc1cc(N2CCN(C(=O)c3ccco3)CC2)n2c(nc3ccccc32)c1C#N	-56.1
Cc1cc(F)ccc1S(=O)(=O)Nc1ncnc2scc(-c3ccc(F)cc3)c12	7.17
CC1Cc2cc(/C(O)=C3\C(=O)C(=O)N(Cc4ccncc4)C3c3ccccc3F)ccc2O1 (stereo not drawn)	4.63
Cc1cccc(Nc2nnc(SCC3CCCCO3)s2)c1 (stereo not drawn)	-22.5
COc1ccc(NC(=O)CN2CCC(C(N)=O)CC2)cc1	2.76
CCOP(=O)(c1ccc(N(C)C)cc1)C(O)c1ccccc1OC (stereo not drawn)	2.07
O=C(CSc1nc2[nH]ncc2c(=O)[nH]1)N1CCCC1	16.8
CCOc1ccc(N(C(=O)c2snc(C(N)=O)c2N)C(CC)C(=O)NC2CCCC2)cc1 (stereo not drawn)	20.3
O=C(c1ccc(N2C(=O)CCC2=O)cc1)N1CCOCC1	7.4
COc1ccc(CCNC(=S)NC(=O)c2cccc([N+](=O)[O-])c2)cc1OC	-6.36
O=C(O)COc1ccccc1/C=N/NC(=O)CSc1nc2ccccc2n1Cc1ccccc1Cl	1.42
Clc1ccc2c(N3CCNCC3)ccnc2c1	-41.9
COc1ccc(OC)c(S(=O)(=O)N2CCCc3ccccc32)c1	-22.9
Cc1cc(C(F)F)n2nc(C(=O)Nc3cccc(C(F)(F)F)c3)nc2n1	-32.7
O=C(CSc1nnc(-c2ccncc2)n1Cc1ccco1)c1ccc(Cl)cc1	-46
Nn1c(SCc2cccc(C(F)(F)F)c2)nnc1-c1ccco1	-11.7
Cc1ccc2c(C)c(C(=O)N(Cc3ccncc3)CC3CCCO3)oc2c1C (stereo not drawn)	-51.9
CCOC(=O)c1ccc(NC(=O)CN2CCN(C(=O)c3ccco3)CC2)cc1	-49.4
Cl.Fc1ccccc1CNCCC(Cc1ccccc1)c1ccc2c(c1)OCO2 (stereo not drawn)	-50.6

SMILES	hERG current change (%, negative = inhibition) at 10uM [%]
Cc1cccc(CSc2nncc(=O)[nH]2)c1	15
COc1cc2ccccc2cc1C(=O)NC(=S)Nc1nnn(C)n1	18.7
O=C(N/N=C/C=C/c1ccco1)c1cccs1	0.56
COC(=O)c1[nH]c2cc(OC)ccc2c1NC(=O)CCN1CCN(c2ccccc2)CC1	-67
CC(=O)Oc1ccc(N2C(=O)C3C4C=CC(CC4)C3C2=O)cc1[N+](=O)[O-] (stereo not drawn)	8.49
CCN(CC)S(=O)(=O)c1cc(C(=O)OCC(=O)Nc2cccc(Br)c2)ccc1F	13.2
COCCn1c(=S)[nH]c2cc(C(=O)N3CCN(Cc4ccc5c(c4)OCO5)CC3)ccc2c1=O	-3.68
CN1CCN(CC(=O)NC2CCCCC2)CC1.Cl	18
C=CCNC(=O)N1CCCC(C(=O)c2cccc(Cl)c2)C1 (stereo not drawn)	-13
COc1ccc(C(=O)Nc2ccc(S(=O)(=O)NC(C)C)cc2)cc1	-7.14
CN1CCN(Cc2cc(=O)oc3ccc(Cl)cc23)CC1	-16.7
Cc1cc(C)c(-n2c(SCC(=O)N3CCOCC3)n[nH]c2=O)c(C)c1	19.8
CN(C)C(CNC(=O)CCNC(=O)c1ccc(Cl)cc1)c1ccco1 (stereo not drawn)	-6.99
N#Cc1c(/N=C/C=C/c2ccccc2)sc2c1CCCC2	-0.27
COc1c(F)cc2[nH]c3c(c2c1F)CCNC3=O	7.3
Cc1ccc(NC(=O)c2ccccc2NC(=O)Cc2ccccc2)cc1	3.19
O=C(Cn1ccc2ccccc2c1=O)N1CCN(Cc2ccc3c(c2)OCO3)CC1	-14.8
Cc1cc(C(=O)NNC(=O)c2ccc(NC(=O)CC#N)cc2)c(C)o1	11.8
Cc1ccc(C(=O)NC(=C(Cl)Cl)S(=O)(=O)c2ccc(Cl)cc2)cc1	27.1
COc1nccnc1NS(=O)(=O)c1ccc(NC(=S)NC(=O)c2ccccc2F)cc1	-3.47
COc1cccc(/C=N\n2c(C)nnc2C)c1OC	3.6
NC(=O)CC(NC(=O)Cc1cccc2ccccc12)c1ccc(NCc2ccc(F)cc2)c([N+](=O)[O-])c1 (stereo not drawn)	-1.55

SMILES	hERG current change (%, negative = inhibition) at 10uM [%]
Cc1ccc(NC(=O)COc2ncnc3ccccc23)cc1S(=O)(=O)N1CCOCC1	-1.45
Cc1nc(N2C(=O)C(=O)/C(=C(/O)c3ccccc3)C2c2ccco2)sc1C (stereo not drawn)	-6.12
COc1cccc(-c2nc(CS(=O)(=O)CC(=O)NC3CCCC3)c(C)o2)c1	3.06
Cc1cccc(N2CCN(C(=O)c3ccc(N4CCCC4=O)cc3)CC2)c1C	-43.3
CCOC(=O)c1c(C)n(C)c2ccc(OCC(O)Cn3nc(C)cc3C)cc12 (stereo not drawn)	3.2
O=C(Nc1cccnc1)/C(N=Nc1cccnc1)=C(\O)c1ccccc1	-53
COc1ccc(-c2c(C)nc3c(-c4ccccn4)cnn3c2N)cc1	12.5
CCn1c(CNC(=O)c2ccccc2F)cc2ccccc21	9.02
COc1ccc(CN2CCC(n3nccc3NC(=O)CCOc3ccccc3)CC2)cc1C	-68.7
O=C(c1ccccc1)n1c(=O)c(F)cn(COCCBr)c1=O	17.5
O=C(O)c1cc(-c2c[nH]c3ccccc23)nc2ccc3ccccc3c12	2.25
Oc1ccc(O)cc1	10.8
O=C(O)CC1(Cc2nc(-c3cccs3)no2)CCCC1	6.17
CSc1cccc(NC(=O)CN2C(=O)COc3ccc(S(=O)(=O)N4CCOCC4)cc32)c1	2.13
COC(=O)C1=C(C(=O)OC)SC2(S1)C(C(=O)OC)=C(C(=O)OC)SC1=C2c2cc(C)cc(C)c2NC1(C)C	26.1
O=C(CCN1CCCC1=O)NC1CCCc2c1cnn2-c1ccc(F)cc1F (stereo not drawn)	-2.54
CC/C(=N\NC(=O)c1ccncc1)C12CC3CC(CC(C3)C1)C2	8
CC(Sc1nnc(-c2ccc(Cl)cc2Cl)n1Cc1ccccc1)C(=O)Nc1nccs1 (stereo not drawn)	-16
CCOC(=O)CSc1nc2ccccc2c(=O)n1-c1ccc(C)cn1	0.327
CN(C)C(Cc1ccccc1)C(=O)c1ccccc1.Cl (stereo not drawn)	-0.684
COc1cccc(OCc2cc(C(=O)N3CCN(C(C)=O)CC3)no2)c1	-1.97
